28 variants from the supplement of paper PMC12217912 can be followed below.

The other results are listed elsewhere or left out. Sequences were assembled here from the parent chain. Inactive controls read about 0.05.

B1: TEV protease; numbered along this chain (parent)
chain: MGESLFKGPRDYNPISSSICHLTNESDGHTTSLYGIGFGPFIITNKHLFRRNNGTLVVQSLHGVFKVKDTTTLQQHLVDGRDMIIIRMPKDFPPFPQKLKFREPQREERICLVTTNFQTKSMSSMVSDTSCTFPSGDGIFWKHWIQTKDGQCGSPLVSTRDGFIVGIHSASNFTNTNNYFTSVPKNFMELLTNQEAQQWVSGWRLNADSVLWGGHKVFMVKPEEPFQPVKEATQL
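Further: Bxb1 expression induced with 0.2% (w/v) L-rhamnose at OD600 near 0.5, cultures sampled hourly, flipped fraction per protease–substrate barcode pair counted by paired-end Illumina sequencing.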

The variants in this test derive from B1. Briefly: raw area under fraction-flipped curve 0-4 h after induction (AUC4h, not background-subtracted), DNA-recorder readout of cleavage of the substrate (dimensionless); higher = more cleavage of the substrate by the protease variant. Conditions: temperature: 34 °C; time window: 0-4 h after rhamnose induction.
E195H: the “area with substrate ENLDFQS” value turned out to be 0.068, the “area with substrate ENLFFQS” value turned out to be 0.137, the “area with substrate ENLGFQS” value turned out to be 0.0415 and the “area with substrate ENLIFQS” value came out at 0.0926. Besides, the “area with substrate ENLKFQS” value turned out to be 0.0828, the “area with substrate ENLLFQS” value amounted to 0.073 and the “area with substrate ENLRFQS” value came to 0.0584.
In the case of V58S, the “area with substrate ENLDFQS” value came out at 0.0598, the “area with substrate ENLEFQS” value worked out at 0.064, the “area with substrate ENLHFQS” value was 0.0584 and the “area with substrate ENLIFQS” value came to 0.0735. The “area with substrate ENLKFQS” value came out at 0.0687, the “area with substrate ENLRFQS” value is 0.0662 and the “area with substrate ENLSFQS” value turned out to be 0.0603.
Turning to V58D, the “area with substrate ENLEFQS” value came out at 0.0247, the “area with substrate ENLGFQS” value stood at 0.0563, the “area with substrate ENLHFQS” value stood at 0.0685 and the “area with substrate ENLIFQS” value worked out at 0.0453. Further, the “area with substrate ENLKFQS” value is 0.0559 and the “area with substrate ENLPFQS” value was determined as 0.0515.
Turning to T159V, the “area with substrate ENLHFQS” value was 0.0674, the “area with substrate ENLKFQS” value is 0.0707, the “area with substrate ENLLFQS” value was 0.0511 and the “area with substrate ENLVFQS” value was found to be 0.091.
Take T159K: the “area with substrate ENLEFQS” value is 0.0693, the “area with substrate ENLHFQS” value came to 0.0744, the “area with substrate ENLIFQS” value was determined as 0.0505 and the “area with substrate ENLKFQS” value was found to be 0.0722. In addition, the “area with substrate ENLNFQS” value was determined as 0.071, the “area with substrate ENLPFQS” value turned out to be 0.0643 and the “area with substrate ENLVFQS” value was 0.117.
Consider G37C, for which the “area with substrate ENLFFQS” value amounted to 0.0685.
As to S154N, the “area with substrate ENLGFQS” value is 0.0714 and the “area with substrate ENLNFQS” value was found to be 0.0489.
L190D: the “area with substrate ENLDFQS” value is 0.0647, the “area with substrate ENLEFQS” value amounted to 0.0489, the “area with substrate ENLHFQS” value came out at 0.0551 and the “area with substrate ENLNFQS” value was 0.054. Also, the “area with substrate ENLPFQS” value stood at 0.0646, the “area with substrate ENLQFQS” value was found to be 0.0338, the “area with substrate ENLRFQS” value was 0.0729 and the “area with substrate ENLTFQS” value is 0.0683. In addition, the “area with substrate ENLVFQS” value was 0.097 and the “area with substrate ENLWFQS” value was found to be 0.0825.
Take L190P: the “area with substrate ENLEFQS” value came to 0.0616, the “area with substrate ENLGFQS” value was determined as 0.113, the “area with substrate ENLHFQS” value was found to be 0.0536 and the “area with substrate ENLKFQS” value came out at 0.0734.
Take L190N: the “area with substrate ENLEFQS” value was 0.0363, the “area with substrate ENLFFQS” value is 0.0846, the “area with substrate ENLHFQS” value is 0.065 and the “area with substrate ENLKFQS” value worked out at 0.0727. Besides, the “area with substrate ENLNFQS” value stood at 0.0772 and the “area with substrate ENLWFQS” value is 0.0391.
With Q194W, the “area with substrate ENLFFQS” value came to 0.0867, the “area with substrate ENLGFQS” value came to 0.0553, the “area with substrate ENLHFQS” value came out at 0.063 and the “area with substrate ENLQFQS” value was found to be 0.0725. Further, the “area with substrate ENLRFQS” value came out at 0.0629 and the “area with substrate ENLWFQS” value was determined as 0.0682.
Consider I85A, for which the “area with substrate ENLHFQS” value came out at 0.0611, the “area with substrate ENLLFQS” value turned out to be 0.055, the “area with substrate ENLNFQS” value turned out to be 0.0414 and the “area with substrate ENLVFQS” value was 0.0728. In addition, the “area with substrate ENLWFQS” value stood at 0.0584.
Regarding N193K, the “area with substrate ENLDFQS” value is 0.0432, the “area with substrate ENLKFQS” value amounted to 0.101 and the “area with substrate ENLLFQS” value stood at 0.072.
Take N193C: the “area with substrate ENLFFQS” value was determined as 0.0679, the “area with substrate ENLKFQS” value stood at 0.0693, the “area with substrate ENLPFQS” value is 0.0578 and the “area with substrate ENLQFQS” value stood at 0.0915. For the same variant, the “area with substrate ENLWFQS” value amounted to 0.0636.
For N193Y, the “area with substrate ENLEFQS” value was 0.0889, the “area with substrate ENLFFQS” value came out at 0.0639, the “area with substrate ENLHFQS” value came out at 0.0545 and the “area with substrate ENLLFQS” value was determined as 0.0624. Also, the “area with substrate ENLVFQS” value worked out at 0.0641 and the “area with substrate ENLWFQS” value came out at 0.0715.
With D91M, the “area with substrate ENLFFQS” value was 0.0818, the “area with substrate ENLIFQS” value came out at 0.0772, the “area with substrate ENLKFQS” value was 0.0869 and the “area with substrate ENLPFQS” value came to 0.0544. In addition, the “area with substrate ENLSFQS” value is 0.0668, the “area with substrate ENLTFQS” value came to 0.007 and the “area with substrate ENLVFQS” value came to 0.0777.
Turning to F6T, the “area with substrate ENLFFQS” value amounted to 0.118, the “area with substrate ENLHFQS” value stood at 0.0703, the “area with substrate ENLKFQS” value stood at 0.0727 and the “area with substrate ENLMFQS” value came out at 0.0981. The “area with substrate ENLQFQS” value was 0.0533 and the “area with substrate ENLSFQS” value was 0.0598.
For the variant K98V, the “area with substrate ENLEFQS” value was 0.0545, the “area with substrate ENLFFQS” value was 0.0914, the “area with substrate ENLKFQS” value came out at 0.0795 and the “area with substrate ENLNFQS” value amounted to 0.0625. Besides, the “area with substrate ENLPFQS” value turned out to be 0.0568, the “area with substrate ENLTFQS” value came out at 0.0771 and the “area with substrate ENLVFQS” value stood at 0.0942.
Regarding L61T, the “area with substrate ENLHFQS” value was 0.0648, the “area with substrate ENLIFQS” value amounted to 0.0862, the “area with substrate ENLNFQS” value worked out at 0.0645 and the “area with substrate ENLPFQS” value stood at 0.0645. For the same variant, the “area with substrate ENLVFQS” value came out at 0.0772.
On to T119G, for which the “area with substrate ENLDFQS” value is 0.0788, the “area with substrate ENLEFQS” value stood at 0.0454, the “area with substrate ENLHFQS” value worked out at 0.0648 and the “area with substrate ENLIFQS” value was 0.0858. Further, the “area with substrate ENLNFQS” value is 0.0489.
As to T119R, the “area with substrate ENLFFQS” value came out at 0.0755, the “area with substrate ENLKFQS” value came out at 0.0803 and the “area with substrate ENLVFQS” value is 0.0936.
As for T119Q, the “area with substrate ENLFFQS” value is 0.0936, the “area with substrate ENLNFQS” value amounted to 0.0785, the “area with substrate ENLQFQS” value was found to be 0.0826 and the “area with substrate ENLWFQS” value was determined as 0.0647.
Regarding T119C, the “area with substrate ENLEFQS” value came to 0.0852, the “area with substrate ENLFFQS” value is 0.08, the “area with substrate ENLHFQS” value is 0.0789 and the “area with substrate ENLPFQS” value was determined as 0.0666. Besides, the “area with substrate ENLSFQS” value was 0.0643 and the “area with substrate ENLWFQS” value was 0.0667.
As for T119W, the “area with substrate ENLGFQS” value was determined as 0.0586, the “area with substrate ENLHFQS” value worked out at 0.0805, the “area with substrate ENLNFQS” value turned out to be 0.0565 and the “area with substrate ENLQFQS” value turned out to be 0.0569.
Take E103I: the “area with substrate ENLDFQS” value is 0.0575, the “area with substrate ENLEFQS” value worked out at 0.059, the “area with substrate ENLFFQS” value is 0.0695 and the “area with substrate ENLHFQS” value is 0.0769. The “area with substrate ENLMFQS” value is 0.0796, the “area with substrate ENLNFQS” value was found to be 0.0629, the “area with substrate ENLPFQS” value was 0.0539 and the “area with substrate ENLQFQS” value worked out at 0.0766. The “area with substrate ENLRFQS” value worked out at 0.0905 and the “area with substrate ENLSFQS” value amounted to 0.0606.
As for F163A, the “area with substrate ENLGFQS” value was found to be 0.0814, the “area with substrate ENLKFQS” value is 0.0709 and the “area with substrate ENLNFQS” value was determined as 0.0668.
On to F163M, for which the “area with substrate ENLFFQS” value came to 0.101, the “area with substrate ENLHFQS” value came to 0.0771, the “area with substrate ENLNFQS” value was determined as 0.0808 and the “area with substrate ENLPFQS” value was 0.0613. The “area with substrate ENLSFQS” value turned out to be 0.0562.
As to N116F, the “area with substrate ENLEFQS” value came to 0.0673, the “area with substrate ENLHFQS” value was determined as 0.0767, the “area with substrate ENLKFQS” value was 0.0856 and the “area with substrate ENLNFQS” value worked out at 0.111. Also, the “area with substrate ENLVFQS” value was 0.0736 and the “area with substrate ENLWFQS” value came out at 0.0775.
